From PMC4336329 (PLoS ONE, 2015) come the findings set out here.

Screen size: about 310,000 compounds; about 2,200 (0.71%) showed an effect of 50% or more. Effects have a minus sign here. The list shows a part of the results.

The target of the assay is human ether-à-go-go-related gene (hERG) potassium channel (human, UniProt Q12809). Description: primary screen, population patch clamp on CHO cells stably expressing hERG.
human ether-à-go-go-related gene (hERG) potassium channel, sequence (Q12809 whole entry, looked up): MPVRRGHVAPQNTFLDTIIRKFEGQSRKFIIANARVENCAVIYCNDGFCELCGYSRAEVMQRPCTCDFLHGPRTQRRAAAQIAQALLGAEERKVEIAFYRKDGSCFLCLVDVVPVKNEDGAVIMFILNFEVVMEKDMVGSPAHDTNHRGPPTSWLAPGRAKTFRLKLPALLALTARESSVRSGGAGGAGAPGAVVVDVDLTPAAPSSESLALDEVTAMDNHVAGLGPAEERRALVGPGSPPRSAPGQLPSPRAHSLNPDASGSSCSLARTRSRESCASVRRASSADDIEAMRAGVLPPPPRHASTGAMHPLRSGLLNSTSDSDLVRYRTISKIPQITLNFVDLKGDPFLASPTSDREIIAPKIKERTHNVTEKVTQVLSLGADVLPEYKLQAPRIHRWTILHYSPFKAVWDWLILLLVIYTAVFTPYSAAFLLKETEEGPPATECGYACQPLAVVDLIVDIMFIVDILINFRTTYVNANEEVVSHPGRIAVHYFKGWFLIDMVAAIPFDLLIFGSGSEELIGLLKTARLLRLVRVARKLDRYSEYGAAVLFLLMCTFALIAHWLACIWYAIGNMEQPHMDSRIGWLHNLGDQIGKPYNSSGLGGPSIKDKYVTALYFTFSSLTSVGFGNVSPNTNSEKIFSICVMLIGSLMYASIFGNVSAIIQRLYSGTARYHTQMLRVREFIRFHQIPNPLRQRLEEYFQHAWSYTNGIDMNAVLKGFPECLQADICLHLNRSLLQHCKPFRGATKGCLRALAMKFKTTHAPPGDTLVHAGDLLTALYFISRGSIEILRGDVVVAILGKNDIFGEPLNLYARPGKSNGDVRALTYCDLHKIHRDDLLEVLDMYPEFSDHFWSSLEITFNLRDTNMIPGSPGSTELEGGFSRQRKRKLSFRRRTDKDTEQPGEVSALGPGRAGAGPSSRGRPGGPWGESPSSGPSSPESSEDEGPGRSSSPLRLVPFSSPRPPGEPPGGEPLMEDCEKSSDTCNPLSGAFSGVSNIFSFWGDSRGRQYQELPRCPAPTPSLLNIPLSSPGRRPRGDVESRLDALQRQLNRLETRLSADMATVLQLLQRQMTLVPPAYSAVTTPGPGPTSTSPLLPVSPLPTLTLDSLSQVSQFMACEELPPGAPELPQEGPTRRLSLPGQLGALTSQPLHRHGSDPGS
On to `Cc1cc(NC(=O)CN2C(=O)NC3(CCCCC3C)C2=O)no1` (centres unmarked), for which the “hERG current change (%, negative = inhibition) at 1uM” value was found to be 1.79%.

Turning to `Cc1ccc(C)c(NC(=O)CN(C)S(=O)(=O)c2ccc(F)cc2)c1`, the “hERG current change (%, negative = inhibition) at 1uM” value came to 13.5%.

On to `Cn1cnnc1SCCNS(=O)(=O)c1ccccc1`, for which the “hERG current change (%, negative = inhibition) at 1uM” value was 7.79%.

With `O=C(Nc1ccc(OC(F)(F)F)cc1)C1CCCN(S(=O)(=O)c2cccnc2)C1` (centres unmarked), the “hERG current change (%, negative = inhibition) at 1uM” value is reported as -4.09%.

In the case of `Cc1cccc(NC(=O)c2ccc3ccccc3n2)c1C`, the “hERG current change (%, negative = inhibition) at 1uM” value turned out to be 16.9%.

For the compound `CNS(=O)(=O)c1ccc(Cl)nc1`, the “hERG current change (%, negative = inhibition) at 1uM” value is reported as -0.39%.

For the compound `CC(C)(C)NC(=O)NC(=O)CN1CCN(S(=O)(=O)c2ccccc2)CC1`, the “hERG current change (%, negative = inhibition) at 1uM” value came out at 13.8%.

Turning to `COc1ccc(Br)c(OC)c1C(=O)NC(=O)Nc1nc(C)cc(C)n1`, the “hERG current change (%, negative = inhibition) at 1uM” value stood at 2.31%.

`CCOc1ccc(N2CC(C(=O)Nc3nnc(SCCOC)s3)CC2=O)cc1` (centres unmarked): the “hERG current change (%, negative = inhibition) at 1uM” value is listed as -16.9%.

On to `ClCc1csc(-c2ccccc2Cl)n1`, for which the “hERG current change (%, negative = inhibition) at 1uM” value is recorded as 4.13%.

With `CC(C)c1cccc(C(C)C)c1OC(=O)[C@H]1OC(c2ccc(Br)cc2)=C[C@@H]1c1ccc(Br)cc1`, the “hERG current change (%, negative = inhibition) at 1uM” value came to 12.1%.

As to `COc1ccc(-c2nc(CSCC(=O)N3CCC(C(N)=O)CC3)c(C)o2)cc1OC`, the “hERG current change (%, negative = inhibition) at 1uM” value is listed as 6.45%.

Turning to `CC(=O)Nc1ccc(OCC(O)CNC(C)C)cc1` (centres unmarked), the “hERG current change (%, negative = inhibition) at 1uM” value worked out at 16.7%.

Consider `CCc1ccc2oc(=O)cc(CN3CCCCC3C)c2c1.Cl` (centres unmarked), for which the “hERG current change (%, negative = inhibition) at 1uM” value came out at 0.558%.

For `COc1ccc(S(=O)(=O)N(C)CC(=O)Nc2ccccc2C(F)(F)F)cc1`, the “hERG current change (%, negative = inhibition) at 1uM” value amounted to 8.98%.

As for `COc1cc(S(=O)(=O)NCc2ccc3c(c2)OCO3)c(OC)cc1C`, the “hERG current change (%, negative = inhibition) at 1uM” value is recorded as 9.84%.

Take `COc1ccc(C(=O)NC(=C(Cl)Cl)S(=O)(=O)c2ccc(C)cc2)cc1`: the “hERG current change (%, negative = inhibition) at 1uM” value turned out to be 9.54%.

Take `COc1cc(NC(=O)NS(=O)(=O)c2ccc(C)cc2)cc(OC)c1`: the “hERG current change (%, negative = inhibition) at 1uM” value came out at 5.75%.

Regarding `COc1ccc(C2Nc3ccccc3C(=O)N2Cc2ccccc2)cc1` (centres unmarked), the “hERG current change (%, negative = inhibition) at 1uM” value is on record as 9.24%.

Take `O=C(NCCOc1ccccc1F)c1ccc2c(=O)n3c(nc2c1)CCC3`: the “hERG current change (%, negative = inhibition) at 1uM” value is on record as 8.73%.

On to `CN(C(=O)CCc1nnc(Cc2ccc(-c3ccccc3)cc2)o1)C1CCOCC1`, for which the “hERG current change (%, negative = inhibition) at 1uM” value is given as -4.53%.

Regarding `COc1ccc(CNC(=O)CCc2nnc3ccc(NCCCN4CCCC4=O)nn23)cc1`, the “hERG current change (%, negative = inhibition) at 1uM” value amounted to 6.79%.

With `O=C(NNc1ccccc1)C(CCO)C(=O)NNc1ccccc1`, the “hERG current change (%, negative = inhibition) at 1uM” value was found to be 4.69%.

As for `COc1ccc(OC)c(NC(=O)CSc2ccc3nnc(-c4ccccn4)n3n2)c1`, the “hERG current change (%, negative = inhibition) at 1uM” value was -38.7%.

For the compound `CCNC(=O)NC(=O)CSc1ccc(NC(C)=O)cc1`, the “hERG current change (%, negative = inhibition) at 1uM” value turned out to be 1.2%.

`COc1ccc(C(=O)n2c(-c3ccco3)nc3ccccc32)cc1`: the “hERG current change (%, negative = inhibition) at 1uM” value is recorded as -3.54%.

`CC(NC(=O)C(=O)N1CCOCC1)C(c1cccs1)N1CCN(c2ccc(F)cc2)CC1` (centres unmarked): the “hERG current change (%, negative = inhibition) at 1uM” value was 13.1%.

As for `CN1C(=O)C(=Cc2sc(=O)n(-c3ccccc3)c2N(C)C)C(=O)N(C)C1=O`, the “hERG current change (%, negative = inhibition) at 1uM” value was found to be 11.9%.

For `CCOc1ccc(S(=O)(=O)N2CCC(C(=O)OCc3ccc(OC)cc3)CC2)cc1`, the “hERG current change (%, negative = inhibition) at 1uM” value is given as 10.1%.

Turning to `O=C(Nc1ccccc1OC(F)F)c1ccc(F)cc1`, the “hERG current change (%, negative = inhibition) at 1uM” value turned out to be 8.03%.

Consider `Cn1c(-c2ccccc2)c(/C=N/NC(=O)c2ccc(O)cc2)c2ccccc21`, for which the “hERG current change (%, negative = inhibition) at 1uM” value is 6.98%.

In the case of `Cc1ccc(C2CC(=O)Oc3cc(O)ccc32)cc1` (centres unmarked), the “hERG current change (%, negative = inhibition) at 1uM” value is on record as -4.73%.

With `O=C(N/N=C/c1ccccc1)c1[nH]ncc1Br`, the “hERG current change (%, negative = inhibition) at 1uM” value is recorded as 15.8%.

As to `O=C(c1cnn2c(C(F)(F)F)cc(-c3ccccc3)nc12)N1CCOCC1`, the “hERG current change (%, negative = inhibition) at 1uM” value turned out to be 10.3%.

In the case of `O=C(NCc1ccc(Cl)cc1)c1csc(-c2cccnc2)n1`, the “hERG current change (%, negative = inhibition) at 1uM” value came to 8.83%.

For `O=C(O)c1ccc(-c2nc(-c3ccccc3)cs2)cc1`, the “hERG current change (%, negative = inhibition) at 1uM” value was found to be 14.3%.

Regarding `CC(C)(C)N(Cc1ccccc1)C(=O)COC(=O)[C@@H]1CCCN1C(=O)c1cccs1`, the “hERG current change (%, negative = inhibition) at 1uM” value worked out at 13.3%.

Regarding `CC(C)(C)c1ccc(NC(=O)N2CCCN(c3ccc([N+](=O)[O-])cn3)CC2)cc1`, the “hERG current change (%, negative = inhibition) at 1uM” value is listed as -7.9%.

For `Cc1ccc(-n2c(SCC(N)=O)nnc2-c2cnccn2)cc1`, the “hERG current change (%, negative = inhibition) at 1uM” value came to 19%.

Regarding `CCc1ccc2nc3sc(C(=O)Nc4nnc(CC)s4)c(N)c3cc2c1`, the “hERG current change (%, negative = inhibition) at 1uM” value is 17%.

As for `COc1cc2c(cc1OC)CN(C(=O)/C=C/c1ccccc1[N+](=O)[O-])CC2`, the “hERG current change (%, negative = inhibition) at 1uM” value was 15.3%.

On to `O=C(N/N=C\c1ccccc1)c1sccc1-n1cccc1`, for which the “hERG current change (%, negative = inhibition) at 1uM” value came to 0.439%.

With `CSCCC(NS(=O)(=O)c1ccc(C)cc1)C(=O)N1CC=C(c2ccccc2)CC1` (centres unmarked), the “hERG current change (%, negative = inhibition) at 1uM” value stood at 9.55%.

Regarding `COc1ccc(/C=N/NC(=O)c2ccccc2O)cc1Cn1nnc2ccccc21`, the “hERG current change (%, negative = inhibition) at 1uM” value is given as 2.55%.

As to `CCOc1ccc(N(C(=O)Cn2nnc3ccccc32)C(C(=O)NC(C)(C)CC)c2cccn2C)cc1` (centres unmarked), the “hERG current change (%, negative = inhibition) at 1uM” value stood at 16.4%.

Turning to `O=C(c1cnn2c1NC(c1ccc(Br)cc1)CC2C(F)(F)F)N1CCN(C23CC4CC(CC(C4)C2)C3)CC1` (centres unmarked), the “hERG current change (%, negative = inhibition) at 1uM” value came to 6.87%.

In the case of `CCNS(=O)(=O)c1ccc2c(c1)n(C)c(=O)n2C`, the “hERG current change (%, negative = inhibition) at 1uM” value was determined as 6.51%.

As for `COC(=O)CSc1ncnc2scc(-c3ccccc3)c12`, the “hERG current change (%, negative = inhibition) at 1uM” value is recorded as -0.407%.

As for `Cc1ccc(C(=O)N/C(=C/c2ccc(F)cc2)C(=O)NCc2ccncc2)cc1`, the “hERG current change (%, negative = inhibition) at 1uM” value is -78.4%.

Turning to `CCCOc1ccc(CSC2=NCCN2)cc1[N+](=O)[O-]`, the “hERG current change (%, negative = inhibition) at 1uM” value was -53.5%.

Regarding `O=C(O)CCC(=O)NC1CCCCC1`, the “hERG current change (%, negative = inhibition) at 1uM” value is 5.23%.

With `O=C(CCC(=O)N1CCN(S(=O)(=O)c2ccc3ccccc3c2)CC1)NCC(F)(F)F`, the “hERG current change (%, negative = inhibition) at 1uM” value is recorded as 17.6%.

`N#Cc1ccc(NC(=O)COC(=O)CSc2nnc(-c3ccc(Cl)cc3)o2)cc1`: the “hERG current change (%, negative = inhibition) at 1uM” value stood at 6.91%.

Take `CCOc1ccc(NC(=O)CCN2C(=O)c3cccc([N+](=O)[O-])c3C2=O)cc1`: the “hERG current change (%, negative = inhibition) at 1uM” value came to 11.2%.

For the compound `Cc1ccc(NC(=O)NC(=O)c2ccccc2)cc1F`, the “hERG current change (%, negative = inhibition) at 1uM” value worked out at 13.8%.

For the compound `O=C(O)CC(CCc1ccccc1)OC1OC(CO)C(O)C(O)C1O` (centres unmarked), the “hERG current change (%, negative = inhibition) at 1uM” value turned out to be 12.2%.
